# Measured values reported in the BET-seq Pho4 binding data (Le et al. 2018).
# The list shows a part of the results. The energies were worked out here from pooled read counts, against the library average; single values are noisy.
# Target: T1, Pho4 (S. cerevisiae) (UniProt P07270)
# T1 sequence: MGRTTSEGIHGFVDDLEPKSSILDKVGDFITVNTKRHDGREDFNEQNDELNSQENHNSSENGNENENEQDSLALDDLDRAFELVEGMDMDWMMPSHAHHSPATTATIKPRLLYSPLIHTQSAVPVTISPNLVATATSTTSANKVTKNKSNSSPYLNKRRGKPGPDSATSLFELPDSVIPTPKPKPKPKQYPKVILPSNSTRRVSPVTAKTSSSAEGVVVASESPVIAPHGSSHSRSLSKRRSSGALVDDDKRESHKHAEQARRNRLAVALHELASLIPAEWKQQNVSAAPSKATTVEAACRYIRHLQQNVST
# Assay: relative binding free energy (BET-seq); higher = weaker binding
# Details: reference: library average
row,Sequence,relative binding free energy [kcal/mol]
1,TGCTGCACGTGTGTAA,0.03
2,TGTGTCACGTGCAGGG,0.03
3,GTTTGCACGTGTTAAA,0.13
4,ATTGCCACGTGGGCTT,-0.19
5,TCGGGCACGTGTTAGA,-0.03
6,AGCGTCACGTGTTGAG,0.06
7,TAGAGCACGTGGCGGT,-0.13
8,GTGGTCACGTGGGACG,0.06
9,CTTGACACGTGTTGCG,0.07
10,ATACTCACGTGGTGTG,0.02
11,TTTATCACGTGAAAAT,0.51
12,CTGGACACGTGTGTGA,0.02
13,GTTGTCACGTGATGGG,0.25
14,TAGGACACGTGTTGCA,0.03
15,AGTGGCACGTGATGGG,0
16,GATGTCACGTGGAATG,0.27
17,AGTGTCACGTGAGTCT,0.16
18,CAGGTCACGTGTGTCT,0.16
19,ATGGCCACGTGTGAAG,0.09
20,TTAGGCACGTGCGAGT,-0.09
21,TGTAGCACGTGAGCGC,0.06
22,AGTTACACGTGTATGT,-0.05
23,TATAGCACGTGGTTTA,-0.21
24,GGGGGCACGTGTTGCG,-0.05
25,TTAGTCACGTGTTAAG,0.15

row,Sequence,relative binding free energy [kcal/mol]
1,GGGATCACGTGCTCGG,0.12
2,GTCTACACGTGTATGG,0.11
3,GGACGCACGTGGGAGG,-0.24
4,ATTGTCACGTGTGTCA,0
5,CGTGACACGTGCGTGT,-0.17
6,TTCGTCACGTGGCGTT,-0.01
7,TGAGACACGTGGGTGT,-0.15
8,TTGTGCACGTGCGAGA,0.08
9,GTTGTCACGTGTTATT,0.16
10,AGTGTCACGTGAAGGA,0.37
11,TTCTTCACGTGGTGTG,0.21
12,TTGCTCACGTGATTGA,0.32
13,TAATCCACGTGTGAGG,0.18
14,TTGTGCACGTGACGCG,0.03
15,TGCGTCACGTGATTGT,0.18
16,TTGGGCACGTGTATTC,0.06
17,TACAACACGTGGGTTG,-0.14
18,GTGGTCACGTGCGGAA,0.15
19,TAGCACACGTGGTGTG,-0.22
20,CTGTTCACGTGATGAG,0.32
21,TTTATCACGTGGAGGG,0.2
22,ATGTACACGTGTATTG,0.05
23,AGAGTCACGTGAATAT,0.32
24,GAAAGCACGTGGAGGG,-0.07
25,AGCGACACGTGTGGTG,0

row,Sequence,relative binding free energy [kcal/mol]
1,CGAGTCACGTGGGAAG,-0.06
2,GCGTTCACGTGGTGAT,0.35
3,GTGAACACGTGAAGTT,0.25
4,ATTATCACGTGGTGGT,0.1
5,ATTTTCACGTGGCTGA,0.18
6,CGGGACACGTGGAGGA,0.09
7,TGCATCACGTGTGATG,0.28
8,GTTGTCACGTGATAGT,0.33
9,GGGTGCACGTGCGATT,0.16
10,TGTATCACGTGTGCGT,0.07
11,TTAATCACGTGGTCAT,0.15
12,TGGTGCACGTGAGACT,0.18
13,TGTGGCACGTGGCACT,-0.21
14,GGGTCCACGTGCTTGT,-0.02
15,GTGTACACGTGTGCAT,0.02
16,AGTTTCACGTGCGCTG,0.23
17,TGATACACGTGGTTAT,-0.09
18,TGGTGCACGTGGTATG,-0.11
19,ATATACACGTGGATTG,0.08
20,AGTTACACGTGGGGGG,0.03
21,AGTTACACGTGGATAT,0.07
22,TATATCACGTGGGTGA,-0.03
23,TAGTACACGTGAGGGC,0.33
24,CGGTGCACGTGATGTT,0.05
25,AGTGGCACGTGCGCTA,-0.17

row,Sequence,relative binding free energy [kcal/mol]
1,TTATTCACGTGCGAAG,0.36
2,CGTGTCACGTGGTGTC,-0.07
3,TATTTCACGTGATTTT,0.31
4,GTCGACACGTGATTTT,0.38
5,TTTTCCACGTGTTCGT,-0.04
6,TTTGGCACGTGCCGGT,-0.17
7,ATGAGCACGTGTGCGT,-0.09
8,TGGCGCACGTGAGGGG,0.16
9,CTTTTCACGTGTGATT,0.2
10,TGTGGCACGTGCAAGC,-0.08
11,TCCGGCACGTGTTAGT,0.04
12,TTGGACACGTGGAAGT,0.02
13,TATACCACGTGGTTGT,-0.2
14,TAGGACACGTGACTGG,0.03
15,TATGTCACGTGACGCT,0.2
16,AAAATCACGTGAGGTA,0.44
17,TGTGTCACGTGTTGGG,0.19
18,TGTTGCACGTGTCTGG,0.06
19,GATGCCACGTGGCGGG,-0.01
20,AGGGCCACGTGGAGGC,-0.08
21,GAATGCACGTGGAATG,0.24
22,GAAGGCACGTGATGTG,0.06
23,ACGGGCACGTGATTAT,0.05
24,ATGTTCACGTGTTTAC,0.05
25,TTTGCCACGTGCTGGT,-0.12

row,Sequence,relative binding free energy [kcal/mol]
1,TTGCGCACGTGGTGAA,-0.27
2,AGAGGCACGTGTGCTT,-0.11
3,TGCCTCACGTGTTGAG,0.33
4,TGGGCCACGTGTCGGT,-0.09
5,TGGCGCACGTGTGATG,-0.14
6,TACTGCACGTGTTTAT,-0.03
7,GACGGCACGTGGGGCT,-0.17
8,GTTTACACGTGTGGGA,0.26
9,GGTATCACGTGTGCAG,-0.01
10,CTGTTCACGTGGTTCG,0.16
11,AGTTTCACGTGCGGAT,0.32
12,ATGGACACGTGTAGAG,0
13,TCATTCACGTGTTAGT,0.29
14,CGTAGCACGTGGGCTG,-0.27
15,GGCGTCACGTGAGGCG,0.29
16,AGTGACACGTGTGATT,0.05
17,GAGGTCACGTGATAGT,0.26
18,GGGGGCACGTGGGTTA,-0.24
19,GGTCGCACGTGACGGT,0.09
20,TAGTGCACGTGAAATG,0.24
21,TGTTGCACGTGTTAGG,0.08
22,CTGTTCACGTGCAGGT,0.3
23,GCGTGCACGTGATGGT,0.13
24,TTTACCACGTGGAAGG,-0.01
25,GGTTGCACGTGTTGGA,0.09

row,Sequence,relative binding free energy [kcal/mol]
1,TTCTTCACGTGAGGGC,0.38
2,GGTTGCACGTGGACTC,0.29
3,GATTGCACGTGAACGG,0.28
4,TAGAACACGTGCTTGT,0.02
5,AGGGTCACGTGTTCTT,0.24
6,CAATTCACGTGAGTTG,0.36
7,TTTGGCACGTGGATGG,0
8,TGATACACGTGGGGCG,-0.05
9,TCTGCCACGTGTGGTG,-0.06
10,ACTGGCACGTGGTAGT,-0.15
11,CGTGGCACGTGCTGGG,-0.19
12,GGGCTCACGTGGCAGG,0.15
13,GTGGGCACGTGATTGT,0.01
14,CGGGCCACGTGGTGTT,-0.23
15,GGGCTCACGTGGGGCC,0.22
16,GTAATCACGTGTATGT,0.16
17,AAGTACACGTGATGAT,0.19
18,AAATGCACGTGGTGGA,-0.14
19,AAAGGCACGTGTTCGG,0.04
20,TTAAACACGTGGATGA,0.11
21,TTATTCACGTGGCGAG,0.11
